“And” between values parts separate entries of the source, which are not always exact repeats. Equal values may be shown once. The whole screen tested about 420,000 compounds, of which about 50,000 (12%) were called active. Inconclusive means that the source gave no clear call. Such entries were picked first, then a sample of the others. The call rests on the fitted dose curve; in most records, active means well fitted inhibition curve with a large enough effect; inconclusive means small, poorly fitted or top-dose-only effect; inactive means flat fitted curve, though single readings scatter. A potency beside an inconclusive call is a rough fit, not a confirmed value.
Experiment: qHTS for Inhibitors of human tyrosyl-DNA phosphodiesterase 1 (TDP1): qHTS in cells in presence of CPT; further: nearly all actives have a fitted effect of over 55% in size
Details: chicken DT40 Tdp1-/-;hTDP1 cells + 20 nM CPT, ATP luminescence, 48 h; series mostly up to 46.2 µM
Outline: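 Cell growth measured by CellTiter-Glo luminescence after a minimum 48 h, 37 C compound exposure with 20 nM CPT in Tdp1-knockout DT40 cells stably expressing hTDP1, seeded 400/well; qHTS titration format.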
Potency means the concentration at half of the fitted maximal effect; tags describe the fitted curve by direction and shape.

Row | Structure (SMILES) | Potency
1 | O=C(Nc1ccccc1N1CCCCC1)c1ccc(F)cc1 | inconclusive: 14.6 µM [inhibitor, single point]
2 | O=C(Cc1cccs1)N(c1ccc(Br)cc1)C1C=CS(=O)(=O)C1 (configuration not stated) | active: 16.4 µM
3 | CCOC(=O)c1c(NC(=O)CSc2nnnn2C)sc(CC)c1C | inconclusive: 23.1 µM [inhibitor, single point]
4 | CCCN(CCC)CCCNC(=O)C1CCN(c2nc3ccc(CC)cc3s2)CC1 | active: 5.8 µM
5 | Cc1cc(C(O)c2ncc(-c3ccccc3Cl)[nH]2)ccc1F (configuration not stated) | inconclusive: 29.1 µM [inhibitor, single point]
6 | O=C(CSc1cn(CC(=O)N2CCCCC2)c2ccccc12)NCc1ccc(F)cc1 | inconclusive: 10.3 µM [inhibitor, partial curve]
7 | CCCCN(C=O)c1c(CC)nc2c(OCC(=O)C(C)(C)C)cccn12 | inconclusive: 18.4 µM [inhibitor, single point]
8 | OC[C@@H]1CN(Cc2ccc(F)cc2)C[C@H](n2cnc3c(N4CCOCC4)ncnc32)O1 | inactive
9 | S=C1NC[C@H](Cc2ccccc2)N1CCc1cccc2ccccc12 | inactive
10 | O=C(Cc1ccc(Cl)cc1)Nc1ccc(C(=O)N2CCCCC2)cc1 | inconclusive: 29.1 µM [inhibitor, single point]
11 | COc1cccc(-c2cnc3c(NC=O)cc(-c4ccccc4)cn23)c1 | active: 5.17 µM
12 | CCN(C[C@H]1N[C@@](Cc2ccccc2)(C(=O)OC)[C@H]2C(=O)N(Cc3ccccc3)C(=O)[C@@H]12)S(=O)(=O)c1ccc(OC)cc1 | inconclusive: 32.6 µM [inhibitor, single point]
13 | CCOc1cc(C2c3c(oc4cc(C)cc(C)c4c3=O)C(=O)N2CCO)ccc1O (configuration not stated) | inactive
14 | Cn1nc(C(=O)NC(C)(C)C)c2ccccc21 | inactive
15 | Cc1ccc(S(=O)(=O)C(C#N)c2nc3ccccc3nc2OCCO)cc1 (configuration not stated) | inconclusive: 29.1 µM [inhibitor, single point]
16 | COC(=O)C1=C(C)NC(=S)NC1c1ccc(OCC(=O)N2CC(C)OC(C)C2)c(OC)c1 (configuration not stated) | inactive
17 | N#C/C(=C\c1cccc(F)c1)c1nc(-c2cc3c(ccc4ccccc43)oc2=O)cs1 | inactive
18 | NC(COCc1ccccc1)c1csc(Nc2nccc(C(F)(F)F)n2)n1 (configuration not stated) | inconclusive: 25.9 µM [inhibitor, single point]
19 | COc1ccc(Br)cc1CN1CCN(S(=O)(=O)Cc2ccccc2)CC1 | inconclusive: 6.51 µM [inhibitor, full curve, poor fit]
20 | O=C(CN1C(=O)S/C(=C\c2ccccc2F)C1=O)NC1C=CS(=O)(=O)C1 (configuration not stated) | active: 14.6 µM
21 | Cc1c(Cl)cccc1NC(=O)C1CCCN(c2nnc(-n3c(C)ccc3C)s2)C1 (configuration not stated) | inconclusive: 29.1 µM [inhibitor, single point]
22 | Cc1csc(SC(C)c2nc3scc(-c4ccccc4)c3c(=O)[nH]2)n1 (configuration not stated) | inconclusive: 20.6 µM [inhibitor, single point]
23 | COc1ccc(CC(=O)N2CCN(c3ccc(F)cc3)CC2)cc1 | inactive
24 | Cc1ccc(NC(=S)NCCN2CCOCC2)cc1F | inactive

Row | Structure (SMILES) | Potency
25 | N#CCCn1cc(/C=C2\NC(=S)N(c3ccccc3)C2=O)c(-c2ccc(F)cc2)n1 | inconclusive: 29.1 µM [inhibitor, single point]
26 | COc1ccc(-c2c(C#N)c(N)nc3c2CCc2ccccc2-3)cc1OC | active: 8.2 µM
27 | CCOc1ccc(-c2nnn(CC(=O)NCc3ccco3)n2)cc1OCC | inactive
28 | CN(C)CCCN(C(=O)c1ccco1)c1nc2cc3c(cc2s1)OCO3 | active: 3.66 µM
29 | O=C(NCc1ccc2c(c1)OCO2)c1ccc2c(c1)N(Cc1cccc(Cl)c1)C(=O)c1ccccc1S2=O (configuration not stated) | inactive
30 | O=c1[nH]c2cc3c(cc2cc1CN(Cc1nnnn1CC1CCCO1)C1CCCC1)OCO3 (configuration not stated) | inconclusive: 16.4 µM [inhibitor, single point]
31 | CC(=O)Oc1cc(C(F)(F)F)ccc1C(=O)O | inactive
32 | CCCCCCC1CC(=CN(C)C)C(=O)O1 (configuration not stated) | inconclusive: 20.6 µM [inhibitor, single point]
33 | CCc1ccc(C2CC(c3ccc(C)cc3)n3nc(N)nc3N2)cc1 (configuration not stated) | inconclusive: 29.1 µM [inhibitor, single point]
34 | O=C(Cc1ccccc1)N1CCc2[nH]nc(-c3ccccc3)c2C1 | inactive
35 | Cc1cnc(NC(=O)C2CC(=O)N(c3ccc4c(c3)OCCO4)C2)s1 (configuration not stated) | inactive
36 | CCN(CC)C(=O)CSc1nc2cc3c(cc2c(=O)n1CCCCCC(=O)NCc1ccc(OC)cc1)OCO3 | inconclusive: 23.1 µM [inhibitor, single point] and inconclusive: 29.1 µM [inhibitor, single point]
37 | Cc1sc2ncnc(N3CCC(C(=O)Nc4ccc(C#N)cc4)CC3)c2c1C | inconclusive: 14.6 µM [inhibitor, partial curve]
38 | CCS(=O)(=O)N1CCN(C(=O)c2cccc(OC)c2)CC1 | inactive
39 | COC(=O)C1(C)NC(c2ccc(C)cc2)C2C(=O)N(c3ccc(F)cc3)C(=O)C21 (configuration not stated) | inactive
40 | O=C(Cn1cnc2ccccc21)Nc1cccc(S(=O)(=O)N2CCCC2)c1 | active: 5.8 µM
41 | CCOc1ccc(CNc2ccc(N3CCN(Cc4ccccc4)CC3)cc2)cc1 | inconclusive: 11.6 µM [inhibitor, single point]
42 | CCC(CO)Oc1cc(NC(=O)c2ccc(Cl)cc2)c2ncn(C(C)C)c2c1 (configuration not stated) | inactive
43 | CCN(CCCNC(=O)c1ccc(Sc2ccc(F)cc2)c(NC(C)=O)c1)c1ccccc1 | inconclusive: 18.4 µM [inhibitor, single point]
44 | Cc1ccccc1OCCCn1c(CO)nc2ccccc21 | inconclusive: 18.4 µM [inhibitor, single point]
45 | O=C(CN1CCN(S(=O)(=O)c2ccccc2)CC1)Nc1cccc(C(F)(F)F)c1 | active: 16.4 µM
46 | O=c1oc2ccccc2cc1-c1cn2cccnc2n1 | inconclusive: 23.1 µM [inhibitor, single point]
47 | COc1ccc(/C(C)=N/NC(=O)CNC(=O)c2ccco2)c(OC)c1 | inactive
